Reference: PMC8387021
Results are given in words; binding and its absence hold for the method and conditions named. For some assays here: Binding seen in cells or lysates may run through a third protein. Some entries that bind do so weakly or less than the wild type. For some assays here: Sequences can lack the tags named with a protein. Each block holds one molecule with its values, some of them ahead of it.

Sequences of proteins named here, by UniProt entry; tags and fusion partners are left off. A change or cut given only in a name is not applied to a line headed by its entry. Residues count along the entry.
fMLL ΔFP (Q03164, residues 1-1395): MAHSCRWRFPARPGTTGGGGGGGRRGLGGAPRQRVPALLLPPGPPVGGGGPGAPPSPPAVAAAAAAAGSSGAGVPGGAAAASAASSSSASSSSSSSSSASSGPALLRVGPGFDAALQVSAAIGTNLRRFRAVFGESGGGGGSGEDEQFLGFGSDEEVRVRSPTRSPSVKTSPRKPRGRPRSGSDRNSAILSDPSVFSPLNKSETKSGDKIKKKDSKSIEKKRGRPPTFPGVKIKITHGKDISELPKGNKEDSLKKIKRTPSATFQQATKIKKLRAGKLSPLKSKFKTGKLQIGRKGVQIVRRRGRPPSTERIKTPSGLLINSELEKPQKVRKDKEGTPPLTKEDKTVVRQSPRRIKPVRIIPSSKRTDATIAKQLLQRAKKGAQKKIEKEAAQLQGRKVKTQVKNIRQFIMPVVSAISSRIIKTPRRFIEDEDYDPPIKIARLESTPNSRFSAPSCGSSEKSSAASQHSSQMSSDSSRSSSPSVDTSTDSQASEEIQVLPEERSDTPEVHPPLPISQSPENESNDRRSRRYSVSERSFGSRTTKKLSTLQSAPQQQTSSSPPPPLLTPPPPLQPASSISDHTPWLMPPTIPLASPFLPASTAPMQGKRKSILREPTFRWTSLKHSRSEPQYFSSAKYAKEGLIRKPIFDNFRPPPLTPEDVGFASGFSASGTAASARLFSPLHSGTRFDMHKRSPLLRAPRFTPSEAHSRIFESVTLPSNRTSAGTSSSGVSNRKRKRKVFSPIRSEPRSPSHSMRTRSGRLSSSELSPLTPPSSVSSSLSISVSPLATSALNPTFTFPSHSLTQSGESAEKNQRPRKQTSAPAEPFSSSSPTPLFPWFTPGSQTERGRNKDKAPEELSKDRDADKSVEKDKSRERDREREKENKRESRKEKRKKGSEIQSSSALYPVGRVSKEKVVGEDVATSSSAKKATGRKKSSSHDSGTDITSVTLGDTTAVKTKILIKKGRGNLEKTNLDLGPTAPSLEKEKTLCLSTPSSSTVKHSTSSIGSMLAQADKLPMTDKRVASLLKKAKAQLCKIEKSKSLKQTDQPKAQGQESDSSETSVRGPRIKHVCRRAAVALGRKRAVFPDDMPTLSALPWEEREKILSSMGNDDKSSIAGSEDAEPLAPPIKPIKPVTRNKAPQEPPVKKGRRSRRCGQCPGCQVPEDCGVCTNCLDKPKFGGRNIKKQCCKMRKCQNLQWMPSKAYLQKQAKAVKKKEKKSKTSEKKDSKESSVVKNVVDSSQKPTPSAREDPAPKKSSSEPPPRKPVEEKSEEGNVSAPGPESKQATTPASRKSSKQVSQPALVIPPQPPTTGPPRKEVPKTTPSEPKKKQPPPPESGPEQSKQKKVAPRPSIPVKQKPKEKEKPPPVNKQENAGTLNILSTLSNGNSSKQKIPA
fMLL 869–1124 (Q03164, residues 869-1124): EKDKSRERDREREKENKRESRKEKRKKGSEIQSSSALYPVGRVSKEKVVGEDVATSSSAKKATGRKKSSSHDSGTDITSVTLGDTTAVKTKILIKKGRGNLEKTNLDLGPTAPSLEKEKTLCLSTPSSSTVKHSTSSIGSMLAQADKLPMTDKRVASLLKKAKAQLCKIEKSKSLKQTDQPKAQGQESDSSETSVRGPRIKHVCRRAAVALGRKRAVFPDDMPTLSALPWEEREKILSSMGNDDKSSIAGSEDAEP
UniProt Q8WYH8: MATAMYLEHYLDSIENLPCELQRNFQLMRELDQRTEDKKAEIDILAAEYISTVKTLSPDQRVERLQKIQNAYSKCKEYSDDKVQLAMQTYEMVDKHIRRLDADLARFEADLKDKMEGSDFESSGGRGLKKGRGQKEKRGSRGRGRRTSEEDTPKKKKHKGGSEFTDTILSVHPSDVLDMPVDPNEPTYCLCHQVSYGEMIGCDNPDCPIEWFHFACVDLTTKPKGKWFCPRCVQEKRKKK

Columns and labels:
fGAL4-EAF1 (human) [1] = molecular target: fGAL4-EAF1 (human) (UniProt Q96JC9); assay: co-IP; chromatin fraction of HEK293TL cells transiently expressing FLAG-tagged GAL4 fusion proteins with or without xAF4 and HA-tagged constructs; endogenous proteins by specific antibodies, exogenous by FLAG, HA or Xpress
fMLL 869–1124 [2] = molecular target: fMLL 869–1124 (UniProt Q03164); assay: co-IP; chromatin fraction of HEK293T cells expressing fMLL 869-1124 with each Xpress-tagged HBO1 complex component singly
fMLL 869–1124 [3] = molecular target: fMLL 869–1124 (UniProt Q03164); assay: co-IP; chromatin fraction of HEK293T cells expressing fMLL 869-1124 with all HBO1 complex components co-expressed (ING5 replaced by its mutants where told)
fMLL ΔFP = fMLL ΔFP (UniProt Q03164); assay: co-IP; fanChIP: MNase-treated chromatin fraction of HEK293T cells transiently expressing FLAG-tagged MLL or GAL4 constructs (with xAF4/xAF5Q31 where told); anti-FLAG beads, western blot
fGAL4-MLL 869/1124 = fGAL4-MLL 869/1124 (UniProt Q03164); assay: as above
fGAL4-EAF1 (human) [4] = molecular target: fGAL4-EAF1 (human) (UniProt Q96JC9); assay: co-IP; chromatin fraction of HEK293TL cells transiently expressing FLAG-tagged GAL4 fusion proteins with or without xAF4 and HA-tagged constructs; endogenous proteins by specific antibodies, exogenous by FLAG, HA or Xpress; remark: listed apart in the source
fGAL4-EAF1 (human) [5] = molecular target: fGAL4-EAF1 (human) (UniProt Q96JC9); assay: ChIP-qPCR recruitment to a GAL4-responsive promoter; HEK293TL cells with a GAL4-responsive reporter, FLAG-tagged GAL4 fusion proteins as tether; qPCR probe near the UAS

Molecule: HA-tagged EAF1 (from UniProt Q96JC9 1-268)
binding (fGAL4-EAF1 (human) [1]): binds

B2: AF4 (protein, UniProt P51825 1-1210)
chain: MAAQSSLYNDDRNLLRIREKERRNQEAHQEKEAFPEKIPLFGEPYKTAKGDELSSRIQNMLGNYEEVKEFLSTKSHTHRLDASENRLGKPKYPLIPDKGSSIPSSSFHTSVHHQSIHTPASGPLSVGNISHNPKMAQPRTEPMPSLHAKSCGPPDSQHLTQDRLGQEGFGSSHHKKGDRRADGDHCASVTDSAPERELSPLISLPSPVPPLSPIHSNQQTLPRTQGSSKVHGSSNNSKGYCPAKSPKDLAVKVHDKETPQDSLVAPAQPPSQTFPPPSLPSKSVAMQQKPTAYVRPMDGQDQAPSESPELKPLPEDYRQQTFEKTDLKVPAKAKLTKLKMPSQSVEQTYSNEVHCVEEILKEMTHSWPPPLTAIHTPSTAEPSKFPFPTKDSQHVSSVTQNQKQYDTSSKTHSNSQQGTSSMLEDDLQLSDSEDSDSEQTPEKPPSSSAPPSAPQSLPEPVASAHSSSAESESTSDSDSSSDSESESSSSDSEENEPLETPAPEPEPPTTNKWQLDNWLTKVSQPAAPPEGPRSTEPPRRHPESKGSSDSATSQEHSESKDPPPKSSSKAPRAPPEAPHPGKRSCQKSPAQQEPPQRQTVGTKQPKKPVKASARAGSRTSLQGEREPGLLPYGSRDQTSKDKPKVKTKGRPRAAASNEPKPAVPPSSEKKKHKSSLPAPSKALSGPEPAKDNVEDRTPEHFALVPLTESQGPPHSGSGSRTSGCRQAVVVQEDSRKDRLPLPLRDTKLLSPLRDTPPPQSLMVKITLDLLSRIPQPPGKGSRQRKAEDKQPPAGKKHSSEKRSSDSSSKLAKKRKGEAERDCDNKKIRLEKEIKSQSSSSSSSHKESSKTKPSRPSSQSSKKEMLPPPPVSSSSQKPAKPALKRSRREADTCGQDPPKSASSTKSNHKDSSIPKQRRVEGKGSRSSSEHKGSSGDTANPFPVPSLPNGNSKPGKPQVKFDKQQADLHMREAKKMKQKAELMTDRVGKAFKYLEAVLSFIECGIATESESQSSKSAYSVYSETVDLIKFIMSLKSFSDATAPTQEKIFAVLCMRCQSILNMAMFRCKKDIAIKYSRTLNKHFESSSKVAQAPSPCIASTGTPSPLSPMPSPASSVGSQSSAGSVGSSGVAATISTPVTIQNMTSSYVTITSHVLTAFDLWEQAEALTRKNKEFFARLSTNVCTLALNSSLVDLVHYTRQGFQQLQELTKTP
binding (fGAL4-EAF1 (human) [4]): no binding
binding (fGAL4-EAF1 (human) [5]): no binding

B3: ENL (protein, UniProt Q03111 1-559)
chain: MDNQCTVQVRLELGHRAQLRKKPTTEGFTHDWMVFVRGPEQCDIQHFVEKVVFWLHDSFPKPRRVCKEPPYKVEESGYAGFIMPIEVHFKNKEEPRKVCFTYDLFLNLEGNPPVNHLRCEKLTFNNPTTEFRYKLLRAGGVMVMPEGADTVSRPSPDYPMLPTIPLSAFSDPKKTKPSHGSKDANKESSKTSKPHKVTKEHRERPRKDSESKSSSKELEREQAKSSKDTSRKLGEGRLPKEEKAPPPKAAFKEPKMALKETKLESTSPKGGPPPPPPPPPRASSKRPATADSPKPSAKKQKKSSSKGSRSAPGTSPRTSSSSSFSDKKPAKDKSSTRGEKVKAESEPREAKKALEVEESNSEDEASFKSESAQSSPSNSSSSSDSSSDSDFEPSQNHSQGPLRSMVEDLQSEESDEDDSSSGEEAAGKTNPGRDSRLSFSDSESDNSADSSLPSREPPPPQKPPPPNSKVSGRRSPESCSKPEKILKKGTYDKAYTDELVELHRRLMALRERNVLQQIVNLIEETGHFNVTNTTFDFDLFSLDETTVRKLQSCLEAVAT
binding (fGAL4-EAF1 (human) [4]): no binding
binding (fGAL4-EAF1 (human) [5]): no binding

Results, then the molecule that gave them:

binding (fMLL 869–1124 [2]): binds weakly
binding (fMLL 869–1124 [3]): binds
Molecule: Xpress-tagged ING5 (from UniProt Q8WYH8 1-240)

binding (fMLL ΔFP): binds
binding (fGAL4-MLL 869/1124): no binding
B1: Xpress-tagged AF4 (protein, UniProt P51825 1-1210)
chain: B2 chain

binding (fMLL 869–1124 [2]): binds weakly
binding (fMLL 869–1124 [3]): binds
B4: Xpress-tagged PHF16 (protein, UniProt Q92613 1-823)
chain: MKRHRPVSSSDSSDESPSTSFTSGSMYRIKSKIPNEHKKPAEVFRKDLISAMKLPDSHHINPDSYYLFADTWKEEWEKGVQVPASPDTVPQPSLRIIAEKVKDVLFIRPRKYIHCSSPDTTEPGYINIMELAASVCRYDLDDMDIFWLQELNEDLAEMGCGPVDENLMEKTVEVLERHCHENMNHAIETEEGLGIEYDEDVICDVCRSPDSEEGNDMVFCDKCNVCVHQACYGILKVPEGSWLCRSCVLGIYPQCVLCPKKGGALKTTKTGTKWAHVSCALWIPEVSIACPERMEPITKISHIPPSRWALVCNLCKLKTGACIQCSIKSCITAFHVTCAFEHGLEMKTILDEGDEVKFKSYCLKHSQNRQKLGEAEYPHHRAKEQSQAKSEKTSLRAQKLRELEEEFYSLVRVEDVAAELGMPTLAVDFIYNYWKLKRKSNFNKPLFPPKEDEENGLVQPKEESIHTRMRMFMHLRQDLERVRNLCYMISRREKLKLSHNKIQEQIFGLQVQLLNQEIDAGLPLTNALENSLFYPPPRITLKLKMPKSTPEDHRNSSTETDQQPHSPDSSSSVHSIRNMQVPQESLEMRTKSYPRYPLESKNNRLLASLSHSRSEAKESSPAWRTPSSECYHGQSLGKPLVLQAALHGQSSIGNGKSQPNSKFAKSNGLEGSWSGNVTQKDSSSEMFCDQEPVFSPHLVSQGSFRKSTVEHFSRSFKETTNRWVKNTEDLQCYVKPTKNMSPKEQFWGRQVLRRSAGRAPYQENDGYCPDLELSDSEAESDGNKEKVRVRKDSSDRENPPHDSRRDCHGKSKTHPLSHSSMQR
